The other results are listed elsewhere or left out. Further columns of the screen follow, without active or inactive calls. Compounds called inactive in the main read-out are mostly missing here.
Assay: beta-lactam sensitization of Mtb H37Rv, H37Rv (AID 434955);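 also: growth measured after seven days incubation then overnight dye step; 0% = bacteria only wells and 100% = bacteria with antibiotic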
Settings: M. tuberculosis H37Rv growth with meropenem, percent inhibition; measured here: primary screen without meropenem; at 25 µM

SMILES | inhibition [%]
Cc1nc(SCCc2ccccc2)[nH]c(=O)c1C | 3.62
Cc1ccsc1C(=O)NNC(=O)c1csc(N2CCOCC2)n1 | 18.1
CCOc1ccc(CCNC(=O)c2c(C)nn(-c3ccccc3)c2Cl)cc1OCC | -2.58
Cn1c(COc2ccc(Cl)cc2)nnc1SCC(=O)Nc1ccc2c(c1)CCC2 | 58.3
Cc1ccc(C(=O)Nc2c(C)cc(C)c3cccnc23)cc1 | 32
Cc1n[nH]c(C)c1CN(C)C(=O)c1cc(COc2ccc(F)c(F)c2)on1 | 4.04
COc1ccccc1CN1CC(C(=O)N(C)Cc2ccncc2C)CCC1=O (stereo unspecified) | 4.24
CCCCC1(c2ccc(F)cc2)NC(=O)N(CC(=O)N2CCN(C(=O)c3ccco3)CC2)C1=O (stereo unspecified) | -2.76
O=C(Nc1nc(COc2ccccc2)cs1)C12CC3CC(CC(C3)C1)C2 | 28.2
CN(C)CCNC(=O)C1(O)c2cc(Br)ccc2NC(=O)N1c1ccc(Cl)cc1 (stereo unspecified) | 1.63
CCOC(=O)CSc1nnc(Cn2c(=O)sc3ccccc32)n1C | -8.44
Cc1ccc(S(=O)(=O)Nc2cccc(-n3cnnn3)c2)cc1C(=O)O | -5.17
NNC(=O)CSc1cccc2cccnc12 | 8.21
CC(=O)N1CCc2c(sc(NC(=O)CCS(=O)(=O)c3ccccc3)c2C#N)C1 | 1.13
O=C(Nc1ccnn1C1CCN(C(=O)CCc2ccc(F)cc2)CC1)C1CCOC1 (stereo unspecified) | -4.59
Nc1c(Cl)cc(-c2csc(N3CCCC3c3nc4cc(Cl)c(N5CCCCC5)cc4n3CCCO)n2)cc1Cl (stereo unspecified) | 1.58
Cc1ccc(S(=O)(=O)Nc2cc(C(=O)O)ccc2N2CCCCC2)cc1 | 1.06
Cc1cc(C)n(-c2nc3ccccc3c(=O)n2OCC(=O)N(C)C)n1 | 6.74
COc1cc2[nH]c(=O)n(CCC(=O)NCCC(C)C)c(=O)c2cc1OC | -1.53
Cc1ccc(C(=O)N(CN2CCCC2=O)c2ccc(F)cc2)cc1C | 0.47
Cc1ccccc1Cn1nc(C)c(NC(=O)C2c3ccccc3Oc3ccccc32)c1C | 3.32
COc1ccc(OCc2cc(C(=O)NCc3nc(C)cs3)no2)c(Cl)c1 | 4.57

SMILES | inhibition [%]
COc1ccccc1N1CCN(C2CCCN(S(=O)(=O)c3ccccc3)C2)CC1 (stereo unspecified) | 10.1
CCOC(=O)c1[nH]c(C)c(C(=O)Nc2ccc(Cl)cc2)c1C | -0.24
Cc1cc(Br)ccc1OCC(=O)NC1CCCC1 | -0.4
CC1=C(C(=O)OC(C)(C)C)C(c2cccc3ccccc23)NC(=O)N1 (stereo unspecified) | 11.3
COc1cc(Nc2cc(C)nc3ncnn23)cc(OC)c1OC | -0.63
CCN=c1scc(-c2ccccc2)n1/N=C/c1ccccn1 | 24.1
CCCN1CCc2c(sc(NC(=O)c3ccc(S(=O)(=O)N4CCN(C(=O)OCC)CC4)cc3)c2C(N)=O)C1 | 6.04
Cc1cccc2cc(CN(CC3CCCO3)C(=O)c3ccncc3)c(=O)[nH]c12 (stereo unspecified) | -6.75
CCN1CCc2c(sc(NC(=O)c3ccc(S(=O)(=O)N(C)CC4CCCO4)cc3)c2C(N)=O)C1 (stereo unspecified) | 2.57
Oc1cccc2ccc(/C=C/c3ccc(Br)s3)nc12 | -7.81
Cc1ccc(CNC(=O)c2cn(C)c3ccc(S(=O)(=O)N4CCOCC4)cc3c2=O)cc1 | 41
COc1cc(NC(=O)C2CC2)c(C(=O)O)cc1OC | 4.67
CC(C)c1ccc(-c2nnn(Cc3nc4ccccc4s3)n2)cc1 | -3.06
C#CCN(C(=O)c1cc(COc2ccc(C)c(C)c2)on1)C1CCCCC1 | 1
C/C(=N\NC(=S)Nc1ccccc1C)c1cc2ccccc2o1 | 35.1
CCn1c(SCC(=O)Nc2cccc(NC(C)=O)c2)nc2c([nH]c3ccccc32)c1=O | 7.15
CCc1cc2c(=O)c(-c3nc4ccccc4n3C)coc2c(CN2CCCC(C)C2)c1O (stereo unspecified) | 4.74
CC1(C)c2[nH]c3ccccc3c2C[C@H]2C(=O)N(N)CC(=O)N21 | -0.08
Cc1ccc(S(=O)(=O)NC2CC2)s1 | 5.62
O=c1c2c(nc3n1CCCCC3)sc1c(O)c(Br)ccc12 | 24.3
O=[N+]([O-])C(/C=C(/Cl)[N+](=O)[O-])=C(N1CCCCC1)N1CCCCC1 | 6.03
O=C(COC(=O)c1ccc([N+](=O)[O-])s1)NCc1ccccc1 | 40.3

SMILES | inhibition [%]
Cc1cc(C(=O)Nc2nnc(-c3ccccc3)s2)no1 | 32.4
CCOc1ccc(-n2cc(-c3ccc(OC)c(OC)c3)[nH]c2=S)cc1 | -1
CSCCC(C)N1CCC(Oc2ccc(C(=O)N3CCCC3)cc2)CC1 (stereo unspecified) | -3.11
CC(CCc1ccccc1)NC(=O)COc1ccc(S(=O)(=O)N2CCOCC2)cc1[N+](=O)[O-] (stereo unspecified) | -8.09
Cc1nn(CCC(=O)NNC(=S)NCC(C)C)c(C)c1Br | -0.97
COc1ccc(CCC(=O)N2CCCC(Nc3ccccc3)C2)cc1OC (stereo unspecified) | 4.3
CCOc1cccc(C(=O)Nc2cc(-c3nn4c(C)nnc4s3)ccc2C)c1 | 45.9
O=C(Nc1ccc2c(c1)nc1n2CCN(Cc2ccccc2)C1)c1cccs1 | -10.9
Cc1cccc(/C=C/c2onc(C)c2S(=O)(=O)N2CCC(C(=O)NC(C)(C)C)CC2)c1 | -14.8
CCC1(c2ccccc2)NC(=O)N(CC(=O)N2CCN(S(=O)(=O)c3ccccc3)CC2)C1=O (stereo unspecified) | -1.86
Cc1noc(C)c1S(=O)(=O)N1CCN(Cc2ccc3c(c2)OCO3)CC1 | -3.65
CCOC(=O)CC1CCCCN1C(=O)CCCn1nnnc1CN1CCC(C)CC1 (stereo unspecified) | -0.48
Cn1c(O)c(/C=C2\C=Nc3ccc(Br)cc32)c(=O)n(C)c1=O | -1.71
COc1ccc(C(=O)OCCN=C2NS(=O)(=O)c3ccccc32)cc1OC | 1.25
C#Cc1ccc(CN2CCC(Oc3ccc(C(=O)NCc4ccccn4)cc3)CC2)cc1 | 8.56
COc1cc(NC(=O)C2CC(c3cccc(OC)c3OC)=NO2)cc(OC)c1OC (stereo unspecified) | -5.06
Cc1ccc(Nc2nc(N)nc(CC#N)n2)cc1 | 42.9
Cc1nnsc1C(=O)NCc1c(F)cccc1Cl | 8.28
Cc1ccc(C)c(S(=O)(=O)N2CCN(CC(=O)NC(C)c3ccccc3)CC2)c1 (stereo unspecified) | 8.95
Cc1ccc(NC(=O)c2ccccc2N(C)S(C)(=O)=O)cc1C | 0.48
CN(C)CCNC(=O)c1ccc(CS(=O)(=O)c2c(Cl)cccc2Cl)o1 | -0.68
CCOC(=O)/C(C#N)=C/c1ccc(OCC(=O)Nc2ccccc2)c(OC)c1 | 38.8

SMILES | inhibition [%]
COc1ccc(CN2CCNC(=O)C2CC(=O)N(C)Cc2ccno2)c(F)c1 (stereo unspecified) | -8.63
Cc1cccc2sc(N(CCN(C)C)C(=O)c3ccc4ccccc4c3)nc12 | 3.86
CCOc1ccc2nc(SC3CC(=O)N(c4cccc(OC)c4)C3=O)sc2c1 (stereo unspecified) | 23.5
Cc1c(CNC(=O)C2CCC(=O)N(CCc3ccccc3)C2)cnn1C (stereo unspecified) | -3.89
COC(=O)c1ccc(-c2csc(NC(=O)C3=COCCO3)n2)cc1 | 4.71
CCCCN(C)CC(O)Cn1cc(/C=C/C(=O)c2ccc(OCC)cc2)c2ccccc21 (stereo unspecified) | 99.5
O=C(CN(c1ccccc1F)S(=O)(=O)c1ccccc1)Nc1ccc2c(c1)OCCO2 | -1.79
CCCCSC(=S)NC1CCS(=O)(=O)C1 (stereo unspecified) | 5.96
COc1cccc(NC(=O)c2ccccc2N2C(=O)C3C4C=CC(C4)C3C2=O)c1 (stereo unspecified) | -7.44
CCOC(=O)c1c(CN2CCCCC2C)oc2ccc(OC)cc12 (stereo unspecified) | -6.61
Cc1ccc(C(=O)Nc2ccc(Cl)cc2C(=O)c2ccccc2)cc1 | 24.2
Cc1ccc(-c2nc(CS(=O)CC(=O)NCCN(CC(C)C)CC(C)C)c(C)o2)cc1 (stereo unspecified) | -5.1
CSc1ccc(Cn2nnc(C(=O)NCc3ccccc3)c2N)cc1 | -5.88
NC(=O)C1CCN(C(=O)CN(c2cccc(Cl)c2)S(=O)(=O)c2ccccc2)CC1 | -4.47
O=C(COc1ccccc1F)Nc1c2c(nn1-c1ccccc1)CS(=O)(=O)C2 | 21.1
CCN(CC(=O)Nc1ccccc1OC)C(=O)COc1ccc2ccccc2c1 | 2.67
CCCCn1c(N)c(N(CC)C(=O)CSCc2c(C)noc2C)c(=O)[nH]c1=O | 3.74
COc1cc2c(cc1OC)[C@H](C)N(C(=O)COc1ccccc1)CC2 | 3.6
Cc1ccc(C)c(SCc2noc(C(=O)NCC3CCCO3)c2C(=O)O)c1 (stereo unspecified) | 27.9
Cc1cccc(N(C(=O)c2cnc3n(c2=O)CCS3)C2CCCCC2)c1 | -4.25
CC(C)c1ccc(/C=C/C(=O)NC2CCCCC2)cc1 | 11.4
CCOc1[nH]n(-c2ccc(Cl)cc2)c(=O)c1C=Nc1ccc(O)cc1 | 7.79

SMILES | inhibition [%]
COc1ccc(S(=O)(=O)N(C)c2ccc(C(=O)N3CCCCC3)cc2)cc1 | -3.98
O=C(Nc1ccccc1C(=O)N1CCCC1)C1CCN(c2ncccn2)CC1 | 1.89
Cc1nn2c(N3CCOCC3)cc(C(C)C)nc2c1-c1ccccc1 | -3.71
O=C(Nc1nc2ccccc2n1Cc1ccccc1)c1ccc(COc2ccccc2[N+](=O)[O-])o1 | 10.6
Cc1ccccc1C(=O)c1cccn1CC(=O)NCc1ccc2c(c1)OCO2 | -4.39
Cc1nc(NCC2CCCO2)c2nnn(Cc3ccccc3)c2n1 (stereo unspecified) | -7.93
COc1cccc(OC)c1OCCCc1c(C)n[nH]c1C | 0.07
O=C(COCc1cc(-c2ccc3c(c2)OCO3)on1)N1CCN(c2ccc(F)cc2)CC1 | 3.93
COCc1ccc(CN2CCC(n3nccc3NC(=O)CCOc3ccccc3)CC2)o1 | -4.71
Cc1coc2c(C)c3oc(=O)c(CCC(=O)NCCC(=O)O)c(C)c3cc12 | 1.77
CN(CC1CCCO1)S(=O)(=O)c1ccc(C(=O)Nc2ccc(F)cc2)cc1 (stereo unspecified) | -1.26
Cn1nccc1C(=O)N(CCN1CCCCC1)CC1CCCN(C2CCCC2)C1 (stereo unspecified) | 3.91
CCN(CC)c1ccc(NC(=O)CSc2nnc(N)s2)cc1C | -6.12
CCN(CC)CCN1C(=O)c2ccccc2NC1c1ccc(C)cc1 (stereo unspecified) | 1.76
COc1cccc(C2CC(c3ccccc3OC)n3ncnc3N2)c1 (stereo unspecified) | -5.17
Cc1ccc(S(=O)(=O)c2nc(C(C)(C)C)oc2N2CCOCC2)cc1 | -6.95
CC1CCCCC1NC(=O)COCc1cc(-c2cccs2)on1 (stereo unspecified) | 5.9
CCCCn1c(O)c(C(CC)=NC(C)c2ccccc2)c(=O)[nH]c1=O (stereo unspecified) | 6.7

From PubChem BioAssay AID434955 (Southern Research Specialized Biocontainment Screening …, 2010)
